# According to the supplement of paper PMC12217912:
# The list shows a part of the results. Sequences were assembled here from the parent chain. Values near 0.05 are background.
# B1: TEV protease; numbered along this chain (parent)
# chain: MGESLFKGPRDYNPISSSICHLTNESDGHTTSLYGIGFGPFIITNKHLFRRNNGTLVVQSLHGVFKVKDTTTLQQHLVDGRDMIIIRMPKDFPPFPQKLKFREPQREERICLVTTNFQTKSMSSMVSDTSCTFPSGDGIFWKHWIQTKDGQCGSPLVSTRDGFIVGIHSASNFTNTNNYFTSVPKNFMELLTNQEAQQWVSGWRLNADSVLWGGHKVFMVKPEEPFQPVKEATQL
# Variants of: B1
# Experiment: raw area under fraction-flipped curve 0-4 h after induction (AUC4h, not background-subtracted), DNA-recorder readout of cleavage of the substrate (dimensionless); higher = more cleavage of the substrate by the protease variant
# Conditions: temperature: 34 °C; time window: 0-4 h after rhamnose induction
# Procedure: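 In vivo DNA recorder in E. coli TOP10(DE3) ΔrhaA at 34 °C. Each TEVp single-site mutant (parent TEVp 0) is paired with a single-site variant of the 7-mer TEVs (canonical ENLYFQ|S). The substrate sits between flexible linkers in a Bxb1-sfGFP-TEVs-SsrA fusion, so cleavage stabilises Bxb1 and speeds flipping of a recombination array, read by NGS. The value is the raw area under the fraction-flipped curve over 0-4 h after rhamnose induction (AUC4h), with ≥20 reads per time point. It is not background-subtracted; inactive controls average about 0.047.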
# 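Note: Bxb1 expression induced with 0.2% (w/v) L-rhamnose at OD600 near 0.5, cultures sampled hourly, flipped fraction per protease–substrate barcode pair counted by paired-end Illumina sequencing.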
Variant,area with substrate ENLAFQS,area with substrate ENLDFQS,area with substrate ENLEFQS,area with substrate ENLGFQS,area with substrate ENLHFQS,area with substrate ENLLFQS,area with substrate ENLNFQS,area with substrate ENLPFQS,area with substrate ENLRFQS,area with substrate ENLSFQS,area with substrate ENLVFQS,area with substrate ENLWFQS,area with substrate ENLFFQS,area with substrate ENLIFQS,area with substrate ENLKFQS,area with substrate ENLMFQS,area with substrate ENLQFQS,area with substrate ENLCFQS,area with substrate ENLTFQS
MGESLFKGPRDYNPISSSTCHLTNESDGHTTSLYGIGFGPFIITNKHLFRRNNGTLVVQSLHGVFKVKDTTTLQQHLVDGRDMIIIRMPKDFPPFPQKLKFREPQREERICLVTTNFQTKSMSSMVSDTSCTFPSGDGIFWKHWIQTKDGQCGSPLVSTRDGFIVGIHSASNFTNTNNYFTSVPKNFMELLTNQEAQQWVSGWRLNADSVLWGGHKVFMVKPEEPFQPVKEATQL [I19T],0.0636,0.0674,0.0616,0.0655,0.0702,0.0637,0.0589,0.0495,0.0654,0.0784,0.0631,0.0682,–,–,–,–,–,–,–
MGESLFKGPRDYNPISSSQCHLTNESDGHTTSLYGIGFGPFIITNKHLFRRNNGTLVVQSLHGVFKVKDTTTLQQHLVDGRDMIIIRMPKDFPPFPQKLKFREPQREERICLVTTNFQTKSMSSMVSDTSCTFPSGDGIFWKHWIQTKDGQCGSPLVSTRDGFIVGIHSASNFTNTNNYFTSVPKNFMELLTNQEAQQWVSGWRLNADSVLWGGHKVFMVKPEEPFQPVKEATQL [I19Q],0.0528,0.0456,–,–,0.0649,–,–,0.074,0.0705,0.0674,–,0.0748,0.0815,0.115,0.0648,0.0648,0.0759,–,–
MGESLFKGPRDYNPISSSICHLTNASDGHTTSLYGIGFGPFIITNKHLFRRNNGTLVVQSLHGVFKVKDTTTLQQHLVDGRDMIIIRMPKDFPPFPQKLKFREPQREERICLVTTNFQTKSMSSMVSDTSCTFPSGDGIFWKHWIQTKDGQCGSPLVSTRDGFIVGIHSASNFTNTNNYFTSVPKNFMELLTNQEAQQWVSGWRLNADSVLWGGHKVFMVKPEEPFQPVKEATQL [E25A],0.0664,0.0591,0.0611,0.0601,0.0896,0.0865,0.0756,0.0782,0.0738,0.0729,0.071,–,0.0938,0.0996,0.0642,–,0.0686,0.0585,0.078
MGESLFKGPRDYNPISSSICHLTNEVDGHTTSLYGIGFGPFIITNKHLFRRNNGTLVVQSLHGVFKVKDTTTLQQHLVDGRDMIIIRMPKDFPPFPQKLKFREPQREERICLVTTNFQTKSMSSMVSDTSCTFPSGDGIFWKHWIQTKDGQCGSPLVSTRDGFIVGIHSASNFTNTNNYFTSVPKNFMELLTNQEAQQWVSGWRLNADSVLWGGHKVFMVKPEEPFQPVKEATQL [S26V],0.0756,0.0705,0.0621,0.0577,–,–,0.0708,0.0455,0.068,–,0.07,0.0707,0.0895,0.0703,0.0481,0.0882,–,–,–
MGESLFKGPRDYNPISSSICHATNESDGHTTSLYGIGFGPFIITNKHLFRRNNGTLVVQSLHGVFKVKDTTTLQQHLVDGRDMIIIRMPKDFPPFPQKLKFREPQREERICLVTTNFQTKSMSSMVSDTSCTFPSGDGIFWKHWIQTKDGQCGSPLVSTRDGFIVGIHSASNFTNTNNYFTSVPKNFMELLTNQEAQQWVSGWRLNADSVLWGGHKVFMVKPEEPFQPVKEATQL [L22A],0.0418,0.0568,0.0582,–,0.0571,–,0.0504,0.0572,0.0573,0.0525,–,0.024,0.0546,–,0.0576,–,–,0.063,–
MGESLFKGPRDYNPISSSICHLTNESDMHTTSLYGIGFGPFIITNKHLFRRNNGTLVVQSLHGVFKVKDTTTLQQHLVDGRDMIIIRMPKDFPPFPQKLKFREPQREERICLVTTNFQTKSMSSMVSDTSCTFPSGDGIFWKHWIQTKDGQCGSPLVSTRDGFIVGIHSASNFTNTNNYFTSVPKNFMELLTNQEAQQWVSGWRLNADSVLWGGHKVFMVKPEEPFQPVKEATQL [G28M],0.0569,0.0662,–,0.0571,0.0741,0.0638,0.0578,–,0.0757,0.0584,–,–,0.0659,0.0683,0.0793,–,–,0.0747,0.0727
MGESLFKGPRDYNPISSSICHLTNESDSHTTSLYGIGFGPFIITNKHLFRRNNGTLVVQSLHGVFKVKDTTTLQQHLVDGRDMIIIRMPKDFPPFPQKLKFREPQREERICLVTTNFQTKSMSSMVSDTSCTFPSGDGIFWKHWIQTKDGQCGSPLVSTRDGFIVGIHSASNFTNTNNYFTSVPKNFMELLTNQEAQQWVSGWRLNADSVLWGGHKVFMVKPEEPFQPVKEATQL [G28S],0.0697,0.054,0.0651,0.0661,0.0681,–,0.0539,0.0518,0.0704,0.0623,–,0.0652,0.0811,0.0732,0.0691,0.0613,–,0.0682,0.0461
MGESLFKGPRDYNPISSSICHLTNESDHHTTSLYGIGFGPFIITNKHLFRRNNGTLVVQSLHGVFKVKDTTTLQQHLVDGRDMIIIRMPKDFPPFPQKLKFREPQREERICLVTTNFQTKSMSSMVSDTSCTFPSGDGIFWKHWIQTKDGQCGSPLVSTRDGFIVGIHSASNFTNTNNYFTSVPKNFMELLTNQEAQQWVSGWRLNADSVLWGGHKVFMVKPEEPFQPVKEATQL [G28H],0.0682,0.0626,0.064,–,0.0694,0.0865,–,0.0687,0.0738,0.0688,–,0.0693,0.0776,0.0778,0.0651,–,–,–,–
MGESLFKGPRDYNPISSSIAHLTNESDGHTTSLYGIGFGPFIITNKHLFRRNNGTLVVQSLHGVFKVKDTTTLQQHLVDGRDMIIIRMPKDFPPFPQKLKFREPQREERICLVTTNFQTKSMSSMVSDTSCTFPSGDGIFWKHWIQTKDGQCGSPLVSTRDGFIVGIHSASNFTNTNNYFTSVPKNFMELLTNQEAQQWVSGWRLNADSVLWGGHKVFMVKPEEPFQPVKEATQL [C20A],0.0886,0.0653,–,0.0494,0.0762,0.0735,0.0719,–,0.0609,–,0.0887,0.0644,0.081,0.0703,0.0732,–,0.0821,0.0586,–
